Measurements published in article PMC4336329 (PLoS ONE, 2015).
In all, about 310,000 compounds went through this assay and about 14,000 (4.5%) showed an effect of 50% or more. The effect is printed as a negative number. The list shows a part of the results.

Molecular target: human ether-à-go-go-related gene (hERG) potassium channel (human, UniProt Q12809)
Assay: primary screen, population patch clamp on CHO cells stably expressing hERG
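Note: peak tail current of the secondary pulse compared with the same well before compound.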

human ether-à-go-go-related gene (hERG) potassium channel, sequence (Q12809 whole entry, looked up): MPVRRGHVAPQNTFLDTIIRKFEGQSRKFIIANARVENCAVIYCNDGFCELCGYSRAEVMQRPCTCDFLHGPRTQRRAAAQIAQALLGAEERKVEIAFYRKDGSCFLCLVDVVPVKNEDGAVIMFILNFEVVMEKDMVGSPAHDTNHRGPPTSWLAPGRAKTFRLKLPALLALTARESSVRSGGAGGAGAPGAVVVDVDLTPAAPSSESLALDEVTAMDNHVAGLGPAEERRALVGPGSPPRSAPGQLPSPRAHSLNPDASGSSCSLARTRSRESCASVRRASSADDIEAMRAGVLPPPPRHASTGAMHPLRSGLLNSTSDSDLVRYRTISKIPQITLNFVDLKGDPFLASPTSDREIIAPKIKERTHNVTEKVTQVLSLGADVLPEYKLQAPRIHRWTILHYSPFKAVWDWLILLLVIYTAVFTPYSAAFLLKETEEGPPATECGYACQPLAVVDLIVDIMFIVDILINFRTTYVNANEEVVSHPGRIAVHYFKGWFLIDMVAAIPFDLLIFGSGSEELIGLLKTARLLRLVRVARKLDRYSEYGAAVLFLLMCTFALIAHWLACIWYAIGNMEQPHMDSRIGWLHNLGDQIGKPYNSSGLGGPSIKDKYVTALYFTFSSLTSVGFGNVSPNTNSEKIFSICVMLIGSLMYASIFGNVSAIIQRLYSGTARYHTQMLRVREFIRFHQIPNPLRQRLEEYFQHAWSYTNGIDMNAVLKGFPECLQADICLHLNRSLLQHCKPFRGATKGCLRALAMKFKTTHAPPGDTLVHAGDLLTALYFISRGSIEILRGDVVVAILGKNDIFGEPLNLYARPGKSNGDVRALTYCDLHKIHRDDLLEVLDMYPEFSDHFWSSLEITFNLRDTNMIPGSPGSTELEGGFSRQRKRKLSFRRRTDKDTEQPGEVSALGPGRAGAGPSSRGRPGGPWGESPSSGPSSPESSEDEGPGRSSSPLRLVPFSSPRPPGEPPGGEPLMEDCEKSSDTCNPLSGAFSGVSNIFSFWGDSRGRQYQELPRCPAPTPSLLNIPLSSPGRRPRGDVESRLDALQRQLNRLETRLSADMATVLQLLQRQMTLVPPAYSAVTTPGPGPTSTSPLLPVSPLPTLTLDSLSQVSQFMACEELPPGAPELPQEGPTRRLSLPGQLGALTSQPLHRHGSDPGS

| Structure (SMILES) | hERG current change (%, negative = inhibition) at 10uM [%] |
| --- | --- |
| CCN(CC(=O)Nc1ccc(NC(C)=O)cc1)C(=O)c1ccc(COc2ccccc2)o1 | 11.7 |
| COC(=O)c1ccccc1NC(=O)NC1CCC(C)CC1 (centres unmarked) | -19.3 |
| COc1cccc(N2CCN(C(=O)c3c(C)nn(-c4ccccc4)c3C)CC2)c1 | 5.19 |
| COc1ccc(NC(=O)C(=O)c2cn(CC(=O)N3CCCC3)c3ccccc23)cc1 | 6.79 |
| CCN1CCN(c2ccc(S(=O)(=O)N3CCOCC3)cc2NC(=O)/C=C/c2ccc(OC)cc2OC)CC1 | -17.2 |
| CCCCn1c(N)c(N(CCOC)C(=O)CSc2n[nH]c(-c3ccc(C)cc3)n2)c(=O)[nH]c1=O | -5.32 |
| O=C(CCn1c(=O)sc2ccccc21)Nc1cccnc1 | -15.2 |
| COc1cccc2c1C(=O)C[C@]1(CCCC[C@@H]1C)O2 | -15.1 |
| O=C(Nc1c2c(nn1-c1ccc(Cl)cc1)CS(=O)(=O)C2)C1CC1 | -26.8 |
| O=S(=O)(Nc1ccc(N2CCOCC2)cc1)c1ccc(F)cc1 | 4.3 |
| N/C(=N\OC(=O)Nc1ccccc1)c1ncc(C(F)(F)F)cc1Cl | 10.3 |
| Cc1nn(C)c(Oc2cccc(Cl)c2)c1C(=O)Nc1ccc(F)cc1F | -5.84 |
| Cc1nnc(NC(=O)c2ccc3ccccc3n2)s1 | 11.8 |
| Fc1ccc(C(CCNCc2ccccn2)c2ccc(Cl)cc2)cc1 (centres unmarked) | -77.5 |
| COCCN(Cc1cn(C)nc1-c1ccccc1F)C(C)C | 15.5 |
| COc1ccccc1NS(=O)(=O)c1cccc(N=C2N=C(N)c3ccccc32)c1 | 11.7 |
| COc1cccc(OCCCCCCN2CCOCC2)c1 | -8.21 |
| O=C(Nc1ccc(O)c(-c2nc3ccccc3o2)c1)C1(c2ccc([N+](=O)[O-])cc2)CCCC1 | 0.668 |
| Cl.Fc1cccc(Cl)c1CNCc1ccccc1Cl | -18.4 |

| Structure (SMILES) | hERG current change (%, negative = inhibition) at 10uM [%] |
| --- | --- |
| COc1cc(NS(=O)(=O)c2c(C)[nH]c(C)c2C(=O)N2CCCCC2)cc(OC)c1OC | 5.18 |
| Cc1ccc(NS(=O)(=O)c2ccc3c(c2)oc(=O)n3C)cc1C | 1.18 |
| O=C(N/N=C/c1ccccc1[N+](=O)[O-])c1ccc2c(c1)OCCO2 | 12.8 |
| CCOc1cc(NC(=S)NC)c(OCC)cc1NC(=O)c1ccco1 | -2.08 |
| CC(Sc1nnc(-c2cccnc2)n1-c1ccccc1F)C(=O)N1CCCc2ccccc21 (centres unmarked) | -22.8 |
| Cc1ccccc1NC(=O)CN1CCC(n2nnc3ccccc32)CC1 | -38.8 |
| CC(C)(C)c1ccc(NC(=O)COC(=O)c2ccc([N+](=O)[O-])s2)cc1 | 0.947 |
| O=S(=O)(Nc1ccc(N=Nc2ccccc2)cc1)c1ccccc1 | 1.45 |
| CC(c1nc2ccccc2c(=O)[nH]1)N(C)c1ccc2ccccc2c1 (centres unmarked) | -7.73 |
| CC(Oc1ccccc1)C(=O)N1CCN(c2ncccn2)CC1 (centres unmarked) | 3.58 |
| CCN1C(=O)N[C@@H](c2cccs2)C(C(=O)OC)=C1C | 10.2 |
| COC(=O)/C=C1\SC(=NC(=O)c2cccc(Cl)c2)NC1=O | -79.5 |
| CCn1c(-c2ccc3[nH]c(C)c(C)c3c2)n[nH]c1=S | 25 |
| OCC(O)CSc1nc(-c2ccccc2)nc2c1CCC2 (centres unmarked) | 2.22 |
| COc1ccc(C2C(C#N)=C3NC(=O)c4c(sc5c4CCCCC5)N3C3=C2C(=O)CC(C)(C)C3)cc1 (centres unmarked) | 5.83 |
| O=C(C1CCC1)N1CCN(S(=O)(=O)c2cccc(F)c2)CC1 | -10.5 |
| Cn1nnnc1SCC(=O)Nc1ncc(Cl)cc1Cl | -10.3 |
| CCc1nnc(NC(=O)CN2CCN(c3cccc(OC)c3)CC2)s1 | -5.75 |
| Cc1cc(C)n(CCOc2ccc(Br)cc2)n1 | 1.08 |

| Structure (SMILES) | hERG current change (%, negative = inhibition) at 10uM [%] |
| --- | --- |
| Cc1cc(C)c(-c2csc(NC(=O)c3cc([N+](=O)[O-])ccc3N3CCOCC3)n2)c(C)c1 | 7.97 |
| O=C(c1ccc(-c2ccccc2Cl)o1)N1CCCC(C(F)(F)F)C1 (centres unmarked) | 2.73 |
| CCN1CCN(C(=O)C2CCN(c3nnc(C)c4c(C)n(-c5ccc(C)cc5)nc34)CC2)CC1 | 3.86 |
| COc1ccc2c(c1)c(=O)c(C(=O)c1ccccc1)cn2Cc1ccc(C)cc1 | -75 |
| CC(C)C1CC(C(F)(F)F)n2nc(C(=O)O)cc2N1 (centres unmarked) | 13.4 |
| Cc1ccc2cc(C(c3nnnn3C3CCCC3)N(Cc3ccccc3)Cc3ccco3)c(=O)[nH]c2c1 (centres unmarked) | 10.7 |
| CC1(c2ccc(Cl)cc2)NC(=O)N(CC(=O)c2ccc3c(c2)OCO3)C1=O (centres unmarked) | 4.42 |
| O=C(NCc1ccco1)c1ccc(=O)[nH]n1 | 17.8 |
| C=CCc1ccccc1OCC(O)CN1CCN(c2ccccc2F)CC1.Cl (centres unmarked) | -40.9 |
| CCn1c(CCNC(=O)c2cccs2)nnc1SCC(=O)Nc1ccc(Cl)cc1 | -49.7 |
| Cc1ccc(CN2CCN(/N=C/c3ccccc3)CC2)cc1 | -12.7 |
| O=C(N/N=C/c1coc2ccc(Cl)cc2c1=O)c1ccc(O)cc1 | 19.3 |
| Cc1cccc(NC(=O)CSc2nnc(-c3ccco3)o2)c1 | 3.61 |
| CCN1CCSc2ccc(C(=O)NCc3ccc(OC(C)C)cc3)cc21 | -0.114 |
| CCOC(=O)Cn1nc(-c2ccc(Cl)cc2)cc1N | -8.3 |
| O=S(=O)(Nc1ccccn1)c1cccs1 | 19.2 |
| Cn1c(O)c(C=Nc2ccc(Cl)cc2)c(=O)n(C)c1=O | -8.57 |
| Cc1cc(C)c(NC(=O)COC(=O)CCn2c(C)csc2=O)c(C)c1 | -10.6 |
